# Measurements published in PubChem BioAssay (NCATS).
# The shares of active, inactive and inconclusive entries below differ from those in the screen. No potency is given beside an inconclusive call; the fits are too rough. Active and inactive are the calls of the source. Calls follow the shape of the dose curve; as a rule, active = well fitted cell-killing curve with a large enough effect; inconclusive = small, poorly fitted or top-dose-only effect; inactive = flat fitted curve, though single readings scatter.
# Assay: qHTS of pediatric cancer cell lines to identify multiple opportunities for drug repurposing: Primary screen for U-2 OS cells (AID 1347096); also: nearly all actives have a fitted effect of over 50% in size;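 as to activity change, negative = cytotoxic: plate controls were DMSO wells for no effect and bortezomib positive control wells for full effect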
# Conditions: U-2 OS viability, CellTiter-Glo luminescence, 48 h; series mostly up to 46 µM; activity change, negative = cytotoxic: at the top concentration
# Outline: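 Viability after 48 h compound treatment at 37C, 500-1,000 cells/well, read as ATP luminescence with CellTiter-Glo. Primary screens used 11-point (MIPE, 0.78 nM-46 µM) or 8-point (NPC, 0.59 nM-46 µM) final concentrations; follow-up screens used 11-point dilutions.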
# Potency is read from the fitted curve at half-maximal effect; tags tell the direction and shape of the fitted curve.
SMILES,Potency,"activity change, negative = cytotoxic"
CN1CCC(Nc2ncc3ncnc(Nc4ccc(F)c(Cl)c4)c3n2)CC1,"inconclusive [cytotoxic, partial curve, poor fit]",
Cc1ccc(O)c2ncccc12,"inconclusive [cytotoxic, single point]",
O=C1c2ccccc2C(=O)C1c1ccccc1,,inactive: 15.9%
COc1cccc2c1C(=O)c1c(O)c3c(c(O)c1C2=O)C[C@@](O)(C(=O)CO)C[C@H]3O[C@H]1C[C@H](N)[C@H](O)[C@H](C)O1,"inconclusive [cytotoxic, full curve, poor fit]",
CN1CC[C@@H](c2c(O)cc(O)c3c(=O)cc(-c4ccccc4Cl)oc23)[C@@H](O)C1,active: 0.296 µM,
NC[C@H](O)c1ccc(O)c(O)c1,inactive,
CCN1CCN(Cc2ccc(-c3cc4c(N[C@H](C)c5ccccc5)ncnc4[nH]3)cc2)CC1,active: 18.7 µM,
CC(=O)[C@]1(O)Cc2c(O)c3c(c(O)c2[C@@H](O[C@H]2C[C@H](N)[C@@H](O)[C@H](C)O2)C1)C(=O)c1ccccc1C3=O,"inconclusive [cytotoxic, full curve, poor fit]",
NC(=O)c1ncn([C@@H]2O[C@H](CO)[C@@H](O)[C@H]2O)c1O,,inactive: 8.33%
